In PubChem BioAssay (NCI):
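Assay format: 96-well plates, 48-hour exposure. Abbreviation: GI50, concentration required for 50% inhibition of growth.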 For part of its entries the source gives two or more results. The list is limited to them. The source may hold further records. Records of one sample usually come from different ranges of test concentrations, which the source does not state; some values may only mark the edge of a range.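 TGI marks complete inhibition of growth.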

Columns and labels:
Assay in all cases: NCI-60 cell line screen, 48 h
[1] = system: XF 498 CNS
[2] = system: NCI/ADR-RES ovarian
[3] = system: NCI-H23 lung
[4] = system: CAKI-1 renal
[5] = system: A498 renal
[6] = system: HOP-92 NSCLC
[7] = system: SF-295 CNS
[8] = system: MCF7 breast
[9] = system: SK-MEL-5 melanoma
[10] = system: DU-145 prostate
[11] = system: NCI-H522 lung
[12] = system: T-47D breast
[13] = system: OVCAR-4 ovarian
[14] = system: SNB-75 CNS
[15] = system: 786-0 renal
[16] = system: NCI-H460 lung
[17] = system: COLO 205 colon
[18] = system: DMS 273 small cell lung
[19] = system: MALME-3M melanoma
[20] = system: ACHN renal
[21] = system: CCRF-CEM leukemia

## COc1ccc(/C=C\c2cc(OC)c(OC)c(OC)c2)c(O)c1O
[1]
  TGI: 21.3 µM and 620 nM
[2]
  GI50: 3.91 µM [1 test] and 60.8 nM [mean of 3 tests]
  TGI: 148 µM [1 test] and 1.36 µM [mean of 3 tests]
[3]
  TGI: 27 µM and 951 nM
[4]
  TGI: 17.7 µM and 1.64 µM
[5]
  TGI: 27.1 µM [mean of 3 tests] and 640 nM [mean of 4 tests]
[6]
  TGI: 29.8 µM and 1.62 µM
[7]
  TGI: 10 µM and 129 nM
[8]
  TGI: 1.77 µM and 77.4 µM
[9]
  TGI: 76.4 nM and 3.27 µM

## NC(=Nc1nc(-c2ccccn2)cc2ccccc12)c1ccccn1
[10]
  TGI: 545 nM and > 43.9 µM
[11]
  TGI: 509 nM and > 29.1 µM
[2]
  TGI: 235 nM and 2.57 µM
[12]
  TGI: 72 nM and > 20.1 µM
[13]
  TGI: 829 nM and > 100 µM
[14]
  TGI: 894 nM and 21.4 µM
[15]
  TGI: 463 nM and 31.7 µM
[5]
  TGI: 380 nM and 8.46 µM
[16]
  TGI: 464 nM and > 26.6 µM
[17]
  TGI: 114 nM and > 100 µM
[18]
  TGI: 551 nM and 13.1 µM
[19]
  TGI: 587 nM and 29.2 µM
[20]
  TGI: 647 nM and 8.85 µM
[21]
  TGI: 194 nM and < 14.1 nM
